# “And” between values parts separate entries of the source, which are not always exact repeats. Equal values may be shown once. Where a name gives a salt, the structure may show the parent alone. ± gives the standard deviation of the averaged measurements. The full ranking holds about 3,100 compounds; the median of “mean cytoplasmic OPP incorporation (global translation) relative to DMSO” is about 100, and the lowest 2% start at about 56. The list shows a part of the results.
# System: U2OS
# Test: mean cytoplasmic OPP incorporation (global translation) relative to DMSO (% of DMSO); higher = more protein synthesis
# Settings: 10 µM; 24 h
# Method: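 Primary image-based screen in U2OS cells: compounds at 10 uM for 24 h, then a 1 h o-propargyl-puromycin (OPP) pulse, click labelling, and high-throughput microscopy. Mean cytoplasmic OPP intensity and nuclei count were normalised to DMSO wells within each plate (DMSO = 100) and averaged over triplicate plates.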
row,Structure (SMILES),mean cytoplasmic OPP incorporation
1,C=CCNc1ncnc2ccc(Br)cc12,105
2,OCC(CO)N[C@H]1C[C@](O)(CO)[C@@H](O)[C@H](O)[C@H]1O [Voglibose],98
3,CCCCC(=O)N(Cc1ccc(-c2ccccc2-c2nnn[nH]2)cc1)[C@H](C(=O)O)C(C)C [Valsartan (Diovan)],99.6
4,CC(=O)[C@H]1[C@H](C#N)C[C@H]2[C@@H]3CC=C4C[C@@H](O)CC[C@]4(C)[C@H]3CC[C@@]21C [Pregnenolone-16(alpha)-carbonitrile],98.2
5,OC(CCN1CCCCC1)(c1ccccc1)c1ccccc1 [Pridinol methanesulfonate salt],110
6,COc1cc(Nc2ncc3c(n2)-c2ccc(Cl)cc2C(c2c(F)cccc2OC)=NC3)ccc1C(=O)O [MLN8237 (Alisertib)],100
7,CCc1ccc(/C=C2/SC(=S)NC2=O)cc1,103
8,Cc1ccc(Nc2nccc(N(C)c3ccc4c(C)n(C)nc4c3)n2)cc1S(N)(=O)=O [Pazopanib HCl],116
9,Cc1ccc(Nc2nccc(N(C)c3ccc4c(C)n(C)nc4c3)n2)cc1S(N)(=O)=O [Pazopanib],113
10,CC(=Nc1ccccc1N)c1c(C)cc(=O)n(O)c1O,95.7
11,CCN(CC)CCNC(=O)c1cc(Br)c(N)cc1OC [Bromopride],94
12,O=c1cc(N2CCOCC2)oc2c(-c3ccccc3)cccc12,96.7 and 91.7
13,CN1c2ccccc2C(=O)N2CCc3c([nH]c4ccccc34)C21 (stereo in doubt) [Evodiamine (Isoevodiamine)],94
14,Nc1cc(C(F)(F)F)c(-c2cc(N3CCOCC3)nc(N3CCOCC3)n2)cn1,73.6
15,"Cc1c(C(=O)Nc2ccc(N3C[C@@H](C)O[C@@H](C)C3)nc2)cccc1-c1ccc(OC(F)(F)F)cc1 [LDE225 (NVP-LDE225, Erismodegib)]",104
16,Cc1ccc(Sc2cncc3sc(C(N)=O)cc23)cc1,100
17,CC(C)NNC(=O)c1ccncc1 [Iproniazide phosphate],92
18,N[C@H](C(=O)O)c1ccc(C(=O)O)c(O)c1 [(S)-4-Carboxy-3-hydroxyphenylglycine],107
19,O=C(O)c1cc(=O)c2ccccc2[nH]1 [Kynurenic acid],97.6
20,Cc1cnc(NC(=O)Nc2cc(Br)c(C)cc2OC[C@@H]2CNCCO2)cn1,45.6
21,O=C(Nc1ccccc1)N1CCN(c2nc(-c3ccccc3)ns2)CC1,110

row,Structure (SMILES),mean cytoplasmic OPP incorporation
1,CC(C)SC(=N)N [S-Isopropylisothiourea hydrobromide],102
2,CC1(COc2ccc(CC3SC(=O)NC3=O)cc2)CCCCC1 (stereo unspecified) [Ciglitazone],99.8 ± 3.3
3,CN(C)CCc1c[nH]c2ccc(CS(=O)(=O)N3CCCC3)cc12 [Almotriptan malate (Axert)],99.7
4,Cn1nc(C(C)(C)C)cc1C(=O)N[C@@H](Cc1cccc(Cl)c1)C(=O)NCC#N [Cathepsin Inhibitor 1],99.9
5,CN(c1ncccc1CNc1nc(Nc2ccc3c(c2)CC(=O)N3)ncc1C(F)(F)F)S(C)(=O)=O,62.8 and 60
6,CCCCCCCCOc1ccccc1C(=O)Nc1ccc(C(=O)OCC[N+](C)(CC)CC)cc1 [Otilonium Bromide],110
7,CN1CCCN(C(=O)c2cccc(-c3ccc(/C=C4/C(=O)Nc5ccc(Cl)cc54)o3)c2)CC1,55.4
8,CN1CCN2c3ccccc3Cc3ccccc3C2C1 (stereo unspecified) [Mianserin hydrochloride],96.9
9,CN1CCN2c3ccccc3Cc3ccccc3C2C1 (stereo unspecified) [Mianserine hydrochloride],103
10,N[C@@H](Cc1ccc(O)c(O)c1)C(=O)O [Levodopa],98.9
11,CCS(=O)(=O)N(C)[C@H]1c2cc(C#N)ccc2OC(C)(C)[C@@H]1O (racemic) [Chromanol 293B],96.1
12,O=C(O)CCC(=O)c1ccc(-c2ccccc2)cc1 [Fenbufen],104
13,O=C1c2c(O)ccc(O)c2C(=O)c2c(NCCNCCO)ccc(NCCNCCO)c21 [Mitoxantrone dihydrochloride],20.9
14,CCOC(=O)C1=C(C)NC(C)=C(C(=O)OC)C1c1cccc(Cl)c1Cl (stereo unspecified) [Felodipine],103
15,Cc1nc2sccn2c(=O)c1CCN1CCC(=C(c2ccc(F)cc2)c2ccc(F)cc2)CC1 [Ritanserin],99.7
16,C[C@H](CCC(=O)O)[C@H]1CC[C@H]2[C@@H]3C(=O)C[C@@H]4CC(=O)CC[C@]4(C)[C@H]3CC(=O)[C@]12C [Dehydrocholic acid],103
17,Cc1oc(S(=O)(=O)N2CCCCC2)cc1NC(=O)Nc1ccccc1,102
18,C[N+](C)(C)CCOC(N)=O [Carbachol],98.4
19,CC(C)(C)NC[C@H](O)COc1cccc2c1CCCC2=O [(-) -Levobunolol hydrochloride],110
20,CC(C)c1cc(C(C)C)c(CC(=O)NS(=O)(=O)Oc2c(C(C)C)cccc2C(C)C)c(C(C)C)c1 [Avasimibe (CI-1011)],101
21,COC(=O)/C=C/C(=O)OC [Dimethyl Fumarate],101

row,Structure (SMILES),mean cytoplasmic OPP incorporation
1,Nc1ncn(C2OC(CO)C(O)C2O)c(=O)n1 (stereo unspecified) [Azacytidine-5],99.4
2,CCN1C(=O)C=CC1=O [N-Ethylmaleimide],103 ± 6.4
3,O=C(NC(Cc1cc(=O)[nH]c2ccccc12)C(=O)O)c1ccc(Cl)cc1 (stereo unspecified) [Rebamipide],107
4,CC(NCCc1ccc(O)cc1)C(O)c1ccc(O)cc1 (stereo unspecified) [Ritodrine hydrochloride],105
5,C[N+](C)(CCOc1ccccc1)Cc1ccccc1.O=C([O-])c1cc2ccccc2cc1O [Bephenium hydroxynaphthoate],99
6,C[C@H](Nc1ncnc2nc[nH]c12)c1cc2cccc(Cl)c2c(=O)n1-c1ccccc1,86.4
7,"C[C@H](Nc1ncnc2nc[nH]c12)c1cc2cccc(Cl)c2c(=O)n1-c1ccccc1 [Duvelisib (IPI-145, INK1197)]",82.9
8,NC1CCN(c2c(F)cc3c(=O)c(C(=O)O)cn(C4CC4)c3c2Cl)C1 (stereo unspecified) [Clinafloxacin],95.8
9,CCC1(C)CC(=O)NC1=O (stereo unspecified) [Ethosuximide],102
10,CC(C)(O)CC(=O)NCCn1ccc2ncnc(Nc3ccc(Oc4cccc(C(F)(F)F)c4)c(Cl)c3)c21,110.5 ± 0.47
11,CCCNC(C)(C)COC(=O)c1ccccc1 [Meprylcaine hydrochloride],110
12,COc1cc2nc(N3CCCN(C)CC3)nc(NC3CCN(Cc4ccccc4)CC3)c2cc1OC,91.1
13,O=S(=O)(c1cccc2cnccc12)N1CCCNCC1 [Fasudil HCl (HA-1077)],98.2
14,O=S(=O)(c1cccc2cnccc12)N1CCCNCC1 [Fasudil hydrochloride],95.8
15,CC(C)c1cnn2c(NCc3ccccc3)cc(NCCCCCCN)nc12,115
16,CCc1nn(CCCN2CCN(c3cccc(Cl)c3)CC2)c(=O)n1CCOc1ccccc1 [Nefazodone hydrochloride],117
17,CCc1nn(CCCN2CCN(c3cccc(Cl)c3)CC2)c(=O)n1CCOc1ccccc1 [Nefazodone HCl],106
18,CCOC(=O)CC(=O)N1CCSC1COc1ccccc1OC (stereo unspecified) [Moguisteine],93.7
19,CC(=O)Oc1ccc(C(c2ccc(OC(C)=O)cc2)c2ccccn2)cc1 [Bisacodyl],93.5
20,Cc1ccc(C(=O)c2cc(/C=C/C(=O)NO)n(C)c2)cc1,99.3
21,CCCCS(=N)(=O)CCC(N)C(=O)O (stereo unspecified) [Buthionine sulfoximine],121

row,Structure (SMILES),mean cytoplasmic OPP incorporation
1,CCC(C)(C)C(=O)O[C@H]1C[C@@H](C)C=C2C=C[C@H](C)[C@H](CC[C@@H]3C[C@@H](O)CC(=O)O3)[C@H]21 [Simvastatin],108 ± 11
2,CCNC1(C(N)=O)CCN(c2ncnc3c2nc(-c2ccccc2Cl)n3-c2ccc(Cl)cc2)CC1,114
3,CCCc1nn(C)c2c(=O)[nH]c(-c3cc(S(=O)(=O)N4CCN(C)CC4)ccc3OCC)nc12 [Sildenafil],100
4,CN(C[C@@H]1COCCO1)S(=O)(=O)Nc1ccc2ccc3ncc(-c4cnn(C)c4)cc3c(=O)c2c1,96.2 ± 3.8
5,N#CC[C@H](C1CCCC1)n1cc(-c2ncnc3[nH]ccc23)cn1,83.53 ± 0.64
6,Clc1ccc(C(c2ccccc2Cl)C(Cl)Cl)cc1 (stereo unspecified) [Mitotane],114
7,O=C1O[C@H]([C@@H](O)CO)C(O)=C1O [Ascorbic acid],112 ± 8.9
8,Cc1cccc(C)c1OCC(=O)N[C@@H](Cc1ccccc1)[C@@H](O)C[C@H](Cc1ccccc1)NC(=O)[C@H](C(C)C)N1CCCNC1=O [Lopinavir (ABT-378)],113
9,c1ccc(-c2nn3c(c2-c2ccnc4cc(OCCN5CCOCC5)ccc24)CCC3)nc1,106
10,O=C(O)Cn1nnc(-c2cc(N3CCC(Oc4cc(F)ccc4Br)CC3)no2)n1,97.1
11,O=C(c1ccc(F)cc1)C1CCN(CCn2c(=S)[nH]c3ccccc3c2=O)CC1 [Altanserin hydrochloride],96.6
12,O=C(O)c1ccccc1Nc1cccc(C(F)(F)F)c1 [Flufenamic acid],101.6 ± 0.53
13,CC[N+](C)(CC)CCC[n+]1c(-c2ccccc2)c2cc(N)ccc2c2ccc(N)cc21 [Propidium iodide],96.5
14,Nc1ccc(C(=O)O)c(O)c1 [Sodium 4-Aminosalicylate],100
15,Nc1ccc(C(=O)O)c(O)c1 [4-aminosalicylic acid],109
16,c1ccc2sc(N3CCN(Cc4ccc5c(c4)OCO5)CC3)nc2c1 [2-[1-(4-Piperonyl)piperazinyl]benzothiazole],105
17,O=C1Nc2ccc(Cl)cc2[C@@](C#CC2CC2)(C(F)(F)F)O1 [Efavirenz],90
18,N#Cc1ccc(NC(=O)Nc2ccccc2Br)c2n[nH]nc12,104

# — the supplement of paper PMC8183993
